# Laboratory results reported in the BET-seq Pho4 binding data (Le et al. 2018).
# This is one part of the list. The energies were worked out here from pooled read counts, against the library average; single values are noisy.
# Target: T1, Pho4 (S. cerevisiae) (UniProt P07270)
# T1 sequence: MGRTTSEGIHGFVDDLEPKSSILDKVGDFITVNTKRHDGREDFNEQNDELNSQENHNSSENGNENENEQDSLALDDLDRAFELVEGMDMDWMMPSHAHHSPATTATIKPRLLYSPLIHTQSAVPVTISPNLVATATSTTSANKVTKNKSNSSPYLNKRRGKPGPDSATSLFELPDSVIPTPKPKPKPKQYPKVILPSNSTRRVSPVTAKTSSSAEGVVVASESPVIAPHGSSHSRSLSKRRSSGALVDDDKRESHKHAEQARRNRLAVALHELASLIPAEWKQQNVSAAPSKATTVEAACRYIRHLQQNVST
# Assay: relative binding free energy (BET-seq); higher = weaker binding
# Details: reference: library average
row,Sequence,relative binding free energy
1,TTGGACACGTGTTAAA,0.2 kcal/mol
2,ATGTTCACGTGTGGCA,0.36 kcal/mol
3,TTTATCACGTGGGGGG,0.05 kcal/mol
4,AGTAACACGTGGTAGA,0.05 kcal/mol
5,TTGGCCACGTGTGAGT,0.08 kcal/mol
6,GAGGGCACGTGTTTTA,-0.01 kcal/mol
7,CGGGGCACGTGGGTAG,-0.25 kcal/mol
8,TTTTGCACGTGATGAG,0.15 kcal/mol
9,TAACTCACGTGTGTGT,0.13 kcal/mol
10,AATAGCACGTGGCTTG,0 kcal/mol
11,TCGGTCACGTGAGTAA,0.24 kcal/mol
12,TTGTACACGTGGGGTT,-0.04 kcal/mol
13,GTTTTCACGTGATAAG,0.32 kcal/mol
14,ATGGCCACGTGGTTTA,0.03 kcal/mol
15,AGGGTCACGTGGGTCC,-0.13 kcal/mol
16,TTAGCCACGTGATGTA,0.04 kcal/mol
17,GGAGTCACGTGGAGTT,0.04 kcal/mol
18,GGTATCACGTGTTGGT,0.29 kcal/mol
19,ATGAACACGTGGTAAT,0.1 kcal/mol
20,TGAAACACGTGTATGG,-0.02 kcal/mol
21,ACAGTCACGTGATGTG,0.31 kcal/mol
22,TTAAACACGTGGAGGA,0.05 kcal/mol
23,GCGTTCACGTGGGTGT,0.19 kcal/mol
24,GGGCGCACGTGGACGT,0.02 kcal/mol
25,GGAAGCACGTGTAGGA,-0.22 kcal/mol

row,Sequence,relative binding free energy
1,ATTCGCACGTGGTTTA,-0.21 kcal/mol
2,CTGTGCACGTGTGATG,0.13 kcal/mol
3,TTTAACACGTGTGAGT,0.05 kcal/mol
4,GGTTGCACGTGATTGA,0.34 kcal/mol
5,TCCTGCACGTGGGTGT,-0.21 kcal/mol
6,ATTTTCACGTGTGCTA,0.22 kcal/mol
7,CTGGTCACGTGTATTA,0.03 kcal/mol
8,GGGTCCACGTGAGTGC,0.18 kcal/mol
9,TCATGCACGTGATTTG,0.14 kcal/mol
10,TGGGGCACGTGATGGG,-0.01 kcal/mol
11,AGTTCCACGTGGCTGT,0.05 kcal/mol
12,GTATGCACGTGTCAGA,0.2 kcal/mol
13,GATCTCACGTGTGGCG,0.38 kcal/mol
14,GCATGCACGTGGCGTT,-0.05 kcal/mol
15,TCGGTCACGTGAGTTG,0.34 kcal/mol
16,GAAAGCACGTGGTTAT,-0.15 kcal/mol
17,GGGGACACGTGCCGTG,0.07 kcal/mol
18,GGGTGCACGTGCGTTA,-0.16 kcal/mol
19,GGACGCACGTGTTGAT,0.08 kcal/mol
20,GCATTCACGTGTTGTA,0.17 kcal/mol
21,ATGTACACGTGGTGAT,0.08 kcal/mol
22,CCTGTCACGTGAAGGG,0.32 kcal/mol
23,TGTTTCACGTGGAACG,0.33 kcal/mol
24,GGTTCCACGTGTGTAG,0.15 kcal/mol
25,ATTGTCACGTGTATGA,0 kcal/mol

row,Sequence,relative binding free energy
1,GGTTTCACGTGAATTA,0.34 kcal/mol
2,GGCAGCACGTGAAGGG,0.29 kcal/mol
3,AATTGCACGTGGAGGA,0.05 kcal/mol
4,TTGAGCACGTGAGTTG,0.13 kcal/mol
5,GGAGGCACGTGTGTGC,-0.04 kcal/mol
6,AGCGGCACGTGGAGTG,-0.11 kcal/mol
7,TGTTACACGTGCTCGT,-0.02 kcal/mol
8,TCTGGCACGTGGAAAG,0.09 kcal/mol
9,TGTCTCACGTGGGGTG,0.03 kcal/mol
10,AGTATCACGTGCGCGT,-0.01 kcal/mol
11,AGTATCACGTGTAGCA,0.15 kcal/mol
12,TTAGGCACGTGCTTTA,-0.15 kcal/mol
13,TTGAGCACGTGGGTGA,-0.25 kcal/mol
14,ATTGGCACGTGGGAGC,-0.03 kcal/mol
15,TGTGTCACGTGAGTGC,0.2 kcal/mol
16,TTAGACACGTGTTCGA,0.07 kcal/mol
17,CGAGGCACGTGGGTAT,-0.16 kcal/mol
18,AGAGACACGTGCTGGT,0.01 kcal/mol
19,TTGTCCACGTGATCGG,0.08 kcal/mol
20,TCAGGCACGTGATATG,0.11 kcal/mol
21,GGTGCCACGTGTTCTG,0.02 kcal/mol
22,TTAATCACGTGAATTA,0.31 kcal/mol
23,GCCGGCACGTGCGTGG,-0.18 kcal/mol
